This is an account of results in PMC4207660, “Identification and Characterization of Hundreds of Potent and Selective Inhibitors of Trypanosoma brucei Growth from a Kinase-Targeted Library Screening Campaign” (PLoS Neglected Tropical Diseases, 2014).

The structures appear in SMILES notation.

Series [1] concerns T. brucei brucei parasites (Lister 427 strain). Put plainly: Dose response growth inhibition assay (resazurin, 72 h). The format is cell-based. The conditions noted are these: Trypanosoma brucei, 72 h; read-out: pEC50 (converted). Here is the method:
Greiner sterile black clear bottom 384-well assay plates were pre-dispensing with 200 nL of compound in each well, from master plates at 1 mM (100% DMSO) containing selection from the GSK compound collection. Controls of 0% response (control 1, 200 nL of 100%DMSO) and 100% response (control 2, 200 nL of 1 mM pentamidine) were included in each assay plate in columns 6 and 18, respectively. Plates containing 200 nL of 100% DMSO were included randomly in the assay, to assess quality through all process. […] After this period, 10 µL of 200 µM resazurin solution in prewarmed HMI-9 were added to each well, and plates were allowed to incubate 2 hours more prior fluorescence reading in a Wallac EnVision Multilabel Plate Reader (Perkin-Elmer). Raw fluorescent data from the Envision plate reader were uploaded into GSK HTS database (ActivityBase). Activity of each well was normalized as a percentage of inhibition per-plate basis using the following equation: [drawing 1]
For dose-response experiments, serial compound dilutions of selected hits from the primary campaign were plotted against compound concentration. Dose response master plates were prepared by 3-fold dilutions (starting with 10 mM DMSO stock solutions), providing 11 concentrations. From these master plates, 200 nL per well was stamped in final assay plates, including the same controls describe in the primary single shot assay. Compounds were dispensed as serial dilution curve format, with 11 points at 3-fold dilution and 40 µM as starting top concentration (n = 2). Growth inhibition assay was performed as described in previous assay.
A 4-parameter equation describing a sigmoidal dose-response curve was then fitted with an adjustable baseline using ActivityBase XE Runner software. Fitting of dose-response curves and EC50 determination were normalized as percentage of inhibition based on controls. The curve-fit model was based on a 4-parameter equation: [drawing 2]
Trypanosome cell culture. […]
(Alamar Blue is a resazurin reagent that responds to reducing activity.)

The test system of series [2] is HepG2 cells. In words: Cytotoxicity assay (Cell Titer Glo, 48 h). The settings on record: HepG2 cells, 48 h. Here is the method:
This assay was used as selectivity assay, and selected hits from the primary were test in dose response concentration against HepG2 in order to identify the level of host cell cytotoxicity. Dose response starting at 10 mM and with 3-fold dilutions for 11 points, were made in 1,536-well master plates. 50 nL per well from them were stamped in final assay plates. The human biological samples were sourced ethically and their research use was in accord with the terms of informed consent.
Cell density was adjusted to 60,000 cells/mL as working concentration in prewarmed Eagle's MEM medium. Seeding density was be checked to ensure that new monolayers are not more than ∼ 50% confluent at the time of seeding (typically 3,000 cells per well), before completing preparation of plates. […] Viability was determined by Cell Titer Glo Kit (Promega) according to manufacturer's instructions: briefly, reconstituted Cell Titer Buffer was equilibrated to room temperature prior its use and 5 µL per well were dispensed with a Multidrop Combi Reagent Dispenser. Contents were mixed on a plate orbital shaker and incubated for 10 min at room temperature, to allow the signal to stabilize before luminescence reading on ViewLux Plate Reader (Perkin-Elmer).
Raw Luminescence data from the ViewLux reader were uploaded into GSK HTS database (ActivityBase). […]
For orientation: Cellular ATP, detected with luciferase, serves as a proxy for viable cell number.

Series [3] concerns T. brucei. The format is cell-based, Trypanosoma brucei brucei. Here is the method:
100 nL per well from master plates were stamped in final assay black, clear-bottom 384-well Greiner microplates, including controls of 0% response (DMSO) and 100% response (2 μM Pentamidine): the final assay concentration was 20 μM. Plates containing DMSO were included randomly in the assay, to assess quality through all process. […] After 18 hours incubation, plates were centrifuged in a centrifuge (Beckman Coulter) for 5 min at 500 g, to sediment the cells, supernatant was aspirated with a Cybio-Well dispenser (Cybio), and 40 μL/well of fresh prewarmed HMI-9 were added: this cycle was performed three times. After the last cycle, 10 μL/well of cells suspension were aspirated by Cybio-Well equipment and dispensed over 40 μL of fresh prewarmed HMI-9 in “recovery plates”: calculated maximal residual concentration was 32 nM. […] Assay […] quality was determined by Z' score and validated data set were analyzed with ActivityBase software. As previous described percentage of inhibition was calculate for each concentration based on controls. A 4-parameter equation was used to fit the dose-response curves and pEC50 determination. The potential effect of residual drug remaining after washes was evaluated by performing the same protocol with standard trypanocidal drugs (such as suramin and diminazene) and negligible effect was observed. […] Dose-response assays were performed as above, but, after 18 hours of incubation, drugs were washed from the cell cultures. The resazurin cell viability assay was performed 72 h after drug removal to determine the extent to which the cells were able to resume replication and growth.

The nature of series [4]: ChromlogD assay. The settings on record: reversed-phase HPLC column (Luna C18 (2)), pH 7.4. The protocol:
The Chromatographic Hydrophobicity Index (CHI)[22] values were measured using reversed phase HPLC column (Luna C18 (2), Phenomenex, UK) with a fast acetonitrile gradient at starting mobile phase of pH = 7.4. CHI values are derived directly from the gradient retention times by using a calibration line obtained for standard compounds. The CHI value approximates to the volume % organic concentration when the compound elutes. […] The average error of the assay is ±3 CHI unit or ±0.25 ChromlogD.

The term logD denotes lipophilicity at a set pH, counting ionised and neutral species. Low values mean lower lipophilicity, high ones higher lipophilicity. For the molecule `O=C(Nc1ccncc1)c1ccc([N+](=O)[O-])o1` [NEU-0001094], the EC50 in series [1] is 562 nM. For the same molecule, the pTC50 in series [2] was determined as 4.23. For the same molecule, the “Cidal?” value in series [3] is reported as “N (No)”. This molecule also came in with a logD in series [4] of 1.64.
On to `C(=C\c1c(-c2ccccc2)nc2sccn12)/c1ccn[nH]1` [NEU-0001096], for which, in series [1], the EC50 is 741 nM. The “Cidal?” value in series [3] is listed as “N (No)”. Also, in series [4], the pH-dependent lipophilicity (logD) turned out to be 4.98.
The corresponding values for `O=c1nc(-c2ccccc2)c2cc(-c3ccncc3)ccc2[nH]1` [NEU-0001101] are 832 nM, “N (No)” and 3.86.
